From the supplement of paper PMC8728848
This is one part of the list.

Legend:
Assay in all cases: glycan array binding signal (z-score within array); higher = stronger binding
Details in all cases: glycan notation: IUPAC condensed, linker removed
[1] = molecular target: Neu5Ac(a2-6)Gal(b1-4)GlcNAc6S
In short: (§1)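 Columns mapping to the same glycan were averaged after glycan names were converted to IUPAC-condensed notation. The data come from 3228 arrays in the Consortium for Functional Glycomics database, limited to those with an available protein sequence. Binding is reported as a within-array Z-score averaged across arrays of one protein sequence and across linkers.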

Neu5Ac(a2-6)GalNAc = molecular target: Neu5Ac(a2-6)GalNAc
In short: as §1

[2] = molecular target: Neu5Ac(a2-6)GalNAc(b1-4)GlcNAc
In short: as §1

[3] = molecular target: Neu5Ac(a2-6)GalNAc(b1-4)GlcNAc6S
In short: as §1

[4] = molecular target: Neu5Ac(a2-6)GlcNAc(b1-4)GlcNAc
In short: as §1

[5] = molecular target: Neu5Ac(a2-6)GlcNAc(b1-4)GlcNAc(b1-4)GlcNAc
In short: as §1

Neu5Ac(a2-8)Neu5Ac = molecular target: Neu5Ac(a2-8)Neu5Ac
In short: as §1

[6] = molecular target: Neu5Ac(a2-8)Neu5Ac(a2-3)Gal(b1-3)GalNAc(b1-4)[Neu5Ac(a2-3)]Gal(b1-4)Glc
In short: as §1

[7] = molecular target: Neu5Ac(a2-8)Neu5Ac(a2-3)Gal(b1-3)GalNAc(b1-4)[Neu5Ac(a2-8)Neu5Ac(a2-3)]Gal(b1-4)Glc
In short: as §1

[8] = molecular target: Neu5Ac(a2-8)Neu5Ac(a2-3)Gal(b1-4)Glc
In short: as §1

[9] = molecular target: Neu5Ac(a2-8)Neu5Ac(a2-3)Gal(b1-4)GlcNAc
In short: as §1

[10] = molecular target: Neu5Ac(a2-8)Neu5Ac(a2-3)[Gal(b1-3)GalNAc(b1-4)]Gal(b1-4)Glc
In short: as §1

[11] = molecular target: Neu5Ac(a2-8)Neu5Ac(a2-3)[GalNAc(b1-4)]Gal(b1-4)Glc
In short: as §1

[12] = molecular target: Neu5Ac(a2-8)Neu5Ac(a2-8)Neu5Ac
In short: as §1

[13] = molecular target: Neu5Ac(a2-8)Neu5Ac(a2-8)Neu5Ac(a2-3)Gal(b1-4)Glc
In short: as §1

[14] = molecular target: Neu5Ac(a2-8)Neu5Ac(a2-8)Neu5Ac(a2-3)[Gal(b1-3)GalNAc(b1-4)]Gal(b1-4)Glc
In short: as §1

[15] = molecular target: Neu5Ac(a2-8)Neu5Ac(a2-8)Neu5Ac(a2-3)[GalNAc(b1-4)]Gal(b1-4)Glc
In short: as §1

[16] = molecular target: Neu5Ac(a2-8)Neu5Ac(a2-8)Neu5Ac(a2-8)Neu5Ac(a2-3)[GalNAc(b1-4)]Gal(b1-4)Glc
In short: as §1

[17] = molecular target: Neu5Ac(a2-8)Neu5Gc(a2-3)Gal(b1-4)GlcNAc
In short: as §1

Neu5Ac(b1-6)GalNAc = molecular target: Neu5Ac(b1-6)GalNAc
In short: as §1

[18] = molecular target: Neu5Ac(b2-6)Gal(b1-4)GlcNAc
In short: as §1

Neu5Ac(b2-6)GalNAc = molecular target: Neu5Ac(b2-6)GalNAc
In short: as §1

[19] = molecular target: Neu5Ac9Ac(a2-3)Gal(b1-3)GlcNAc
In short: as §1

[20] = molecular target: Neu5Ac9Ac(a2-3)Gal(b1-4)GlcNAc
In short: as §1

[21] = molecular target: Neu5Ac9Ac(a2-6)Gal(b1-4)GlcNAc
In short: as §1

[22] = molecular target: Neu5Gc(a2-3)Gal(b1-3)GlcNAc
In short: as §1

[23] = molecular target: Neu5Gc(a2-3)Gal(b1-3)[Fuc(a1-4)]GlcNAc
In short: as §1

Neu5Gc(a2-3)Gal(b1-4)Glc = molecular target: Neu5Gc(a2-3)Gal(b1-4)Glc
In short: as §1

[24] = molecular target: Neu5Gc(a2-3)Gal(b1-4)GlcNAc
In short: as §1

[25] = molecular target: Neu5Gc(a2-3)Gal(b1-4)GlcNAc(b1-3)Gal(b1-4)GlcNAc(b1-2)Man(a1-3)[Neu5Gc(a2-3)Gal(b1-4)GlcNAc(b1-3)Gal(b1-4)GlcNAc(b1-2)Man(a1-6)]Man(b1-4)GlcNAc(b1-4)GlcNAc
In short: as §1

[26] = molecular target: Neu5Gc(a2-3)Gal(b1-4)[Fuc(a1-3)]GlcNAc
In short: as §1

[27] = molecular target: Neu5Gc(a2-6)Gal(b1-4)GlcNAc
In short: as §1

Neu5Gc(a2-6)GalNAc = molecular target: Neu5Gc(a2-6)GalNAc
In short: as §1

[28] = molecular target: Neu5Gc(a2-8)Neu5Ac(a2-3)Gal(b1-4)GlcNAc
In short: as §1

[29] = molecular target: Neu5Gc(a2-8)Neu5Gc(a2-3)Gal(b1-4)GlcNAc
In short: as §1

[30] = molecular target: Neu5Gc(a2-8)Neu5Gc(a2-3)Gal(b1-4)GlcNAc(b1-3)Gal(b1-4)GlcNAc
In short: as §1

[31] = molecular target: Neu5Gc(a2-8)Neu5Gc(a2-6)Gal(b1-4)GlcNAc
In short: as §1

[32] = molecular target: Neu5Gc(b2-6)Gal(b1-4)GlcNAc
In short: as §1

B1: SJA (Sophora japonica) (protein)
chain: FLGLFNSGGYSSSYQIVAVEFDTYINEWDPKTRHIGIDINSINSTKTVTWGWENGEVAIVLISYKAATETLTVSLTYPSSQTSYILSAAVDLKSILPEWVRIGF
glycan array binding signal (z-score) [1]: -0.268
glycan array binding signal (z-score) (Neu5Ac(a2-6)GalNAc): -0.109
glycan array binding signal (z-score) [2]: -0.214
glycan array binding signal (z-score) [3]: -0.304
glycan array binding signal (z-score) [4]: -0.296
glycan array binding signal (z-score) [5]: -0.288
glycan array binding signal (z-score) (Neu5Ac(a2-8)Neu5Ac): -0.036
glycan array binding signal (z-score) [6]: -0.054
glycan array binding signal (z-score) [7]: -0.434
glycan array binding signal (z-score) [8]: -0.292
glycan array binding signal (z-score) [9]: -0.378
glycan array binding signal (z-score) [10]: -0.258
glycan array binding signal (z-score) [11]: -0.232
glycan array binding signal (z-score) [12]: -0.169
glycan array binding signal (z-score) [13]: -0.161
glycan array binding signal (z-score) [14]: 0.164
glycan array binding signal (z-score) [15]: -0.064
glycan array binding signal (z-score) [16]: -0.262
glycan array binding signal (z-score) [17]: -0.348
glycan array binding signal (z-score) (Neu5Ac(b1-6)GalNAc): -0.178
glycan array binding signal (z-score) [18]: -0.225
glycan array binding signal (z-score) (Neu5Ac(b2-6)GalNAc): -0.162
glycan array binding signal (z-score) [19]: -0.234
glycan array binding signal (z-score) [20]: 0.503
glycan array binding signal (z-score) [21]: -0.279
glycan array binding signal (z-score) [22]: -0.168
glycan array binding signal (z-score) [23]: -0.281
glycan array binding signal (z-score) (Neu5Gc(a2-3)Gal(b1-4)Glc): -0.319
glycan array binding signal (z-score) [24]: -0.285
glycan array binding signal (z-score) [25]: -0.097
glycan array binding signal (z-score) [26]: -0.144
glycan array binding signal (z-score) [27]: -0.138
glycan array binding signal (z-score) (Neu5Gc(a2-6)GalNAc): -0.241
glycan array binding signal (z-score) [28]: -0.144
glycan array binding signal (z-score) [29]: -0.298
glycan array binding signal (z-score) [30]: -0.25
glycan array binding signal (z-score) [31]: -0.244
glycan array binding signal (z-score) [32]: -0.211
